Measured values taken from patent EP4650366A1 (Beijing Tuo Jie Biopharmaceutical Co. Ltd., dated 2025).

Legend:
[1] = target: T1, Human GARP-TGFβ1 complex (human, UniProt Q14392 20-627; P01137 30-390); assay: SPR (Biacore T200), antibody on Protein A chip, antigen in flow
T1 construct: Soluble recombinant complex, co-expressed in ExpiCHO cells and purified; also called human GARP/TGFβ1 protein

[2] = target: T2, Mouse GARP-TGFβ1 complex (mouse, UniProt G3XA59 18-628; P04202 30-390); assay: as above
T2 construct: Soluble recombinant complex, co-expressed in ExpiCHO cells and purified; also called Murine GARP-TGFβ1 complex
T2 sequence (G3XA59 other isoform, or with tags, fused parts or gaps limits assumed, chain 1 of 2): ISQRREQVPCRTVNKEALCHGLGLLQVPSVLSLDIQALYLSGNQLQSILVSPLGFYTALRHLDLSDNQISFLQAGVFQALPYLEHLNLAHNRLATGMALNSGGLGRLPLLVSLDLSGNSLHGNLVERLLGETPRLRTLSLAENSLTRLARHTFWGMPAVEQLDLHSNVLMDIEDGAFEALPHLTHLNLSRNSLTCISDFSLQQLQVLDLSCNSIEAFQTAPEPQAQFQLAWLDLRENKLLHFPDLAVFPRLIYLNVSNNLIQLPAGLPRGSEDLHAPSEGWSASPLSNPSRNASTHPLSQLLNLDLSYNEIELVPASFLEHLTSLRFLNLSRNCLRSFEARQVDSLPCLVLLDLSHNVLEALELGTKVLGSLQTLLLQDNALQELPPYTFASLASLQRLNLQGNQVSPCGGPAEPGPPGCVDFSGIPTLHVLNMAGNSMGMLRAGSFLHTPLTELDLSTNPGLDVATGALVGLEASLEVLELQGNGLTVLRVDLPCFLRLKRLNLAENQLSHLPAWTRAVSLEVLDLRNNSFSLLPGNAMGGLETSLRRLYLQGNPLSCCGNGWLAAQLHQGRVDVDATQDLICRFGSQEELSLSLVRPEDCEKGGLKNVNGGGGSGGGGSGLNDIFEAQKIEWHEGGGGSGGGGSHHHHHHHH
T2 sequence (P04202 30-390 limits assumed, chain 2 of 2, further chain): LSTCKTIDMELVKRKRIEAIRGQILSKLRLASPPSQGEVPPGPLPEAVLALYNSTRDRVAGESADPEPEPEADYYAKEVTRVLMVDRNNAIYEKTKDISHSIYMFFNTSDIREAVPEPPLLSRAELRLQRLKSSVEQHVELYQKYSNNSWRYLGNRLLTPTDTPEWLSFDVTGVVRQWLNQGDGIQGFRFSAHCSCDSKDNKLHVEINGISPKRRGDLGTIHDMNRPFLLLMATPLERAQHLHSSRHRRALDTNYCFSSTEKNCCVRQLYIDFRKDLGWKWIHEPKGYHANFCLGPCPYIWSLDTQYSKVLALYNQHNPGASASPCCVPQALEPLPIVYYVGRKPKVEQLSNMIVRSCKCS

T1 sequence (Q14392 other isoform, or with tags, fused parts or gaps limits assumed, chain 1 of 2): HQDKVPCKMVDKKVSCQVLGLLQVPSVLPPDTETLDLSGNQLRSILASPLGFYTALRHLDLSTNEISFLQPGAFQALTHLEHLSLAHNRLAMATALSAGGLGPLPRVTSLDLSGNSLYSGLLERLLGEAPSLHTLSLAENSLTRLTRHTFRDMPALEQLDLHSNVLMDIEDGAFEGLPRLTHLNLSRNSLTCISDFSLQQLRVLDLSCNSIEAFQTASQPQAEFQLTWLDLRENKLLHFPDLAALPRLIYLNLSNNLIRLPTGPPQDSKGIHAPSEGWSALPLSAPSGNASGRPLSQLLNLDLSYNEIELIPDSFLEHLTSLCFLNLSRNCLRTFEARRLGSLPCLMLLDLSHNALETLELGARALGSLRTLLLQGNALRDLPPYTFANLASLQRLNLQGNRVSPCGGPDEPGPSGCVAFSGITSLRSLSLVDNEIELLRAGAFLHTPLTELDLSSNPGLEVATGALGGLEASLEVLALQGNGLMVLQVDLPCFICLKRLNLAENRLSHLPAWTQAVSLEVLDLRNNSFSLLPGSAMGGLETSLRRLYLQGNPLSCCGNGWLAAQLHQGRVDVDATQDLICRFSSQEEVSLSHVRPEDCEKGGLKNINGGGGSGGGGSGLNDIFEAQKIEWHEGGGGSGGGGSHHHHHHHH
T1 sequence (P01137 30-390 limits assumed, chain 2 of 2, further chain): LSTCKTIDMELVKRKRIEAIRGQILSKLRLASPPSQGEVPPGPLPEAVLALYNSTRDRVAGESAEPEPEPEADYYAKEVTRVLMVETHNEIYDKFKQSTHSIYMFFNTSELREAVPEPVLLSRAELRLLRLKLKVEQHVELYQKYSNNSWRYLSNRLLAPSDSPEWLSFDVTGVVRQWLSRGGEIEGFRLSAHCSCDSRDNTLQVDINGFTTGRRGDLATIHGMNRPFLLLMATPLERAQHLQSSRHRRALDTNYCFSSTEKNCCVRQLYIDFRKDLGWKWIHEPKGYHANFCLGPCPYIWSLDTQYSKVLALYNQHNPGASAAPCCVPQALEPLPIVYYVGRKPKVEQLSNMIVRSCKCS

Row | Kd [1] [nM] | koff [1] [s⁻¹] | kon [1] [M⁻¹ s⁻¹] | Kd [2] [nM] | koff [2] [s⁻¹] | kon [2] [M⁻¹ s⁻¹] | Binder
1 | 2.46 | 0.000101 | 41200 | 24.6 | 0.00061 | 24800 | C19-7 (Fc fusion, Humanized VHH-hIgG4 Fc; also called C19-hu7 fused with hIgG4 Fc) EVQLLESGGGLVQPGGSLRLSCTASGFTYCEYDMSWYRQAPGKEREFVSRIASDGRTSYVDSVKGRFTISQDNARNTGYLEMNSLRAEDTAVYYCKTEAVKYSGNWCVAAPGFAYWGQGTLVTVSS[human IgG4 Fc with S228P (EU numbers) cut from this listing]
2 | 2.12 | 0.000157 | 73800 | 10.1 | 0.000507 | 50000 | C19 (Fc fusion, Camelid VHH fused with human IgG4 Fc (S228P); It is built here from the VHH and the Fc; no linker is mentioned; also called C19-VHH fused with hIgG4-Fc (S228P)) QVQLVESGGGSVQAGGSLRLSCTASGFTYCEYDMSWYRQAPGKEREFVSRIASDGRTSYVDSVKGRFTISQDNARNTGYLEMNSLKPEDTAMYYCKTEAVKYSGNWCVAAPGFAYWGQGTQVTVSS[human IgG4 Fc with S228P (EU numbers) cut from this listing]
3 | 4.69 | 0.000145 | 30800 | 44.6 | 0.000625 | 14000 | C19-3 (Fc fusion, Humanized VHH-hIgG4 Fc; also called C19-hu3 fused with hIgG4 Fc) EVQLLESGGGLVQPGGSLRLSCTASGFTYCEYDMSWYRQAPGKEREFVSRIASDGRTSYVDSVKGRFTISQDNARNTGYLQMNSLRAEDTAVYYCKTEAVKYSGNWCVAAPGFAYWGQGTLVTVSS[human IgG4 Fc with S228P (EU numbers) cut from this listing]
